# Measurements published in ChEMBL document CHEMBL5606460, “ASAP - DENV-2 NS2B-NS3 protease fluorescence single point” (2024).
# Hit rate of the full screen: of about 2,000 compounds, about 110 (5.5%) showed an effect of 50% or more. The list shows a part of the results.
# Biological target: Genome polyprotein (dengue virus type 2) (UniProt P29990)
# [1] = Thailand/16681/1984, Concentration 25.0 uM, Number of replicates 1.0
compound,measurement,setting,value
CN(Cc1ccccc1NC(=O)C1CCN(c2ccc(C=O)cc2)CC1)C1CCCCC1,inhibition,[1],13.6%
COc1cc(Cc2ccc(S(=O)(=O)NCCO)cc2)nc(N2CCNCC2)n1,inhibition,"Thailand/16681/1984, Concentration 49.5 uM, Number of replicates 2.0, Standard deviation 0.08182962367044716 %",-2.78%
same,inhibition,"Thailand/16681/1984, Concentration 99.01 uM, Number of replicates 2.0, Standard deviation 0.3472509194543487 %",-2.12%
same,inhibition,"Thailand/16681/1984, Concentration 198.0 uM, Number of replicates 2.0, Standard deviation 1.2127555040010847 %",-2.14%
NCc1cccc(NC(=O)[C@@H](Cc2cccc(O)c2)NC(=O)OCc2ccccc2)c1,inhibition,"Thailand/16681/1984, Concentration 49.5 uM, Number of replicates 2.0, Standard deviation 2.8573642237031027 %",-3.63%
same,inhibition,"Thailand/16681/1984, Concentration 99.01 uM, Number of replicates 2.0, Standard deviation 1.9175045904819328 %",-3.65%
same,inhibition,"Thailand/16681/1984, Concentration 198.0 uM, Number of replicates 2.0, Standard deviation 1.9524208099559948 %",-2.84%
O=Cc1ccc(N2CCC(C(=O)NCc3ccc(OC(F)(F)F)cc3)CC2)cc1,inhibition,[1],10.7%
Cc1cc(CO)c2cccc(Cc3ccccc3C(=O)N3CCC(CN)CC3)c2n1,inhibition,"Thailand/16681/1984, Concentration 49.95 uM, Number of replicates 2.0, Standard deviation 7.669453256982897 %",67%
same,inhibition,"Thailand/16681/1984, Concentration 99.9 uM, Number of replicates 2.0, Standard deviation 4.997502207892192 %",86.3%
O=C(Nc1nc2ccccc2[nH]1)[C@@]1(c2ccc(F)cc2)CCCNC1,inhibition,"Thailand/16681/1984, Concentration 49.5 uM, Number of replicates 2.0, Standard deviation 0.9171252879352392 %",0.644%
same,inhibition,"Thailand/16681/1984, Concentration 99.01 uM, Number of replicates 2.0, Standard deviation 1.169983954901562 %",1.06%
same,inhibition,"Thailand/16681/1984, Concentration 198.0 uM, Number of replicates 2.0, Standard deviation 0.7736108835077664 %",2.49%
CC(C)(CO)NC(=O)c1cc(Cl)cc(NC(=O)c2c[nH]c(=O)o2)c1,inhibition,"Thailand/16681/1984, Concentration 49.5 uM, Number of replicates 2.0, Standard deviation 0.8910462701673381 %",-0.805%
same,inhibition,"Thailand/16681/1984, Concentration 99.01 uM, Number of replicates 2.0, Standard deviation 0.1489851898290989 %",1.01%
same,inhibition,"Thailand/16681/1984, Concentration 198.0 uM, Number of replicates 2.0, Standard deviation 0.6795059902085213 %",4.89%
CCCc1nn(C)c(C(N)=O)c1Nc1cccc2c(CO)cc(C)nc12,inhibition,"Thailand/16681/1984, Concentration 49.95 uM, Number of replicates 2.0, Standard deviation 0.3385554582582744 %",-0.283%
same,inhibition,"Thailand/16681/1984, Concentration 99.9 uM, Number of replicates 2.0, Standard deviation 0.771265242800741 %",3.07%
CNC(=O)[C@H]1CCN(S(=O)(=O)c2ccc(Oc3ccccc3Cl)cc2)C1,inhibition,"Thailand/16681/1984, Concentration 49.5 uM, Number of replicates 2.0, Standard deviation 0.2326651022960228 %",-2.7%
same,inhibition,"Thailand/16681/1984, Concentration 99.01 uM, Number of replicates 2.0, Standard deviation 1.0727392899756494 %",-1.81%
same,inhibition,"Thailand/16681/1984, Concentration 198.0 uM, Number of replicates 2.0, Standard deviation 0.8124211767562954 %",0.204%
Cc1nc([C@H]2CCCNC2)[nH]c1C(=O)N1CCN([C@H](C)C(=O)NC2CCCC2)CC1,inhibition,"Thailand/16681/1984, Concentration 49.5 uM, Number of replicates 2.0, Standard deviation 0.15595109451043393 %",-3.77%
same,inhibition,"Thailand/16681/1984, Concentration 99.01 uM, Number of replicates 2.0, Standard deviation 0.465726384968048 %",-3.64%
same,inhibition,"Thailand/16681/1984, Concentration 198.0 uM, Number of replicates 2.0, Standard deviation 0.9729217285355408 %",-3.32%
O=Cc1ccc(N2CCC(C(=O)N3CCC(C(=O)NCCO)CC3)CC2)cc1,inhibition,[1],12.8%
CC(=O)Nc1cccc(CNC(=O)C2CCN(c3ccc(C=O)cc3)CC2)c1,inhibition,[1],15.8%
O=C(c1cccn2ccnc12)N1CC[C@H](c2c[nH]c3ccccc23)C1,inhibition,"Thailand/16681/1984, Concentration 49.5 uM, Number of replicates 2.0, Standard deviation 0.46479721554577685 %",-0.016%
same,inhibition,"Thailand/16681/1984, Concentration 99.01 uM, Number of replicates 2.0, Standard deviation 0.206818378859323 %",1.15%
same,inhibition,"Thailand/16681/1984, Concentration 198.0 uM, Number of replicates 2.0, Standard deviation 0.3292768058509988 %",2.63%
CCS(=O)(=O)c1ccccc1C(=O)Nc1ccncc1C,inhibition,"Thailand/16681/1984, Concentration 49.5 uM, Number of replicates 2.0, Standard deviation 0.526238469836473 %",3.98%
same,inhibition,"Thailand/16681/1984, Concentration 99.01 uM, Number of replicates 2.0, Standard deviation 7.236859352566233 %",7.19%
same,inhibition,"Thailand/16681/1984, Concentration 198.0 uM, Number of replicates 2.0, Standard deviation 2.9244017365390755 %",4.24%
O=Cc1ccc(N2CCC(C(=O)NCc3c(F)cc(F)c(F)c3F)CC2)cc1,inhibition,[1],13.6%
Cc1cc(CO)c2cccc(NC(=O)c3cccc(Cn4cncn4)c3)c2n1,inhibition,"Thailand/16681/1984, Concentration 49.95 uM, Number of replicates 2.0, Standard deviation 2.3639363167890877 %",2.3%
same,inhibition,"Thailand/16681/1984, Concentration 99.9 uM, Number of replicates 2.0, Standard deviation 2.324751717378933 %",6.53%
COc1cc(COc2ccc(CO)cc2F)nc(N2CCNCC2)n1,inhibition,"Thailand/16681/1984, Concentration 49.5 uM, Number of replicates 2.0, Standard deviation 3.6186161339409284 %",-4.25%
same,inhibition,"Thailand/16681/1984, Concentration 99.01 uM, Number of replicates 2.0, Standard deviation 1.1962405142931818 %",-1.95%
same,inhibition,"Thailand/16681/1984, Concentration 198.0 uM, Number of replicates 2.0, Standard deviation 0.8125920400801586 %",-1.13%
C[C@@]1(CNC(=O)c2ccnc3[nH]cnc23)CCCN1C(=O)c1cc[nH]n1,inhibition,"Thailand/16681/1984, Concentration 49.5 uM, Number of replicates 2.0, Standard deviation 0.46118901462513606 %",0.303%
same,inhibition,"Thailand/16681/1984, Concentration 99.01 uM, Number of replicates 2.0, Standard deviation 0.21948477124230198 %",0.135%
same,inhibition,"Thailand/16681/1984, Concentration 198.0 uM, Number of replicates 2.0, Standard deviation 0.9711523827616293 %",0.225%
O=Cc1ccc(N2CCC(C(=O)NCc3ccccc3N3CCOCC3)CC2)cc1,inhibition,[1],11.4%
Cc1cc(CO)c2cccc(C[C@H](NC(=O)C[C@H]3CCCN3)C(=O)O)c2n1,inhibition,"Thailand/16681/1984, Concentration 49.95 uM, Number of replicates 2.0, Standard deviation 0.0013512279632592627 %",3.5%
same,inhibition,"Thailand/16681/1984, Concentration 99.9 uM, Number of replicates 2.0, Standard deviation 1.378906641613337 %",9%
c1ccc2c(CN3CCC(c4c[nH]c5ncccc45)CC3)ccnc2c1,inhibition,"Thailand/16681/1984, Concentration 49.5 uM, Number of replicates 2.0, Standard deviation 0.597215280015365 %",4.29%
same,inhibition,"Thailand/16681/1984, Concentration 99.01 uM, Number of replicates 2.0, Standard deviation 0.3164914750615221 %",6.39%
same,inhibition,"Thailand/16681/1984, Concentration 198.0 uM, Number of replicates 2.0, Standard deviation 1.585167923429043 %",5.45%
